According to the supplement of paper PMC8728848:
The other results are listed elsewhere or left out.

Experiments:
Experiment in all cases: glycan array binding signal (z-score within array); higher = stronger binding
Conditions in all cases: glycan notation: IUPAC condensed, linker removed
[1] = target: Gal(b1-4)GlcNAc(b1-6)[Gal(b1-3)]GalNAc
Procedure, shortened: (§1)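 Arrays were curated from the Consortium for Functional Glycomics database, 3228 in total, and kept only where the protein sequence was available. Binding is expressed as a within-array Z-score. This score was averaged across arrays of the same protein sequence at different concentrations or buffers and across linkers, and negative values can be read as non-binding.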

[2] = target: Gal(b1-4)GlcNAc(b1-6)[Gal(b1-4)GlcNAc(b1-3)]GalNAc
Procedure, shortened: as §1

Gal(b1-4)GlcNAc6P = target: Gal(b1-4)GlcNAc6P
Procedure, shortened: as §1

Gal(b1-6)Gal = target: Gal(b1-6)Gal
Procedure, shortened: as §1

Gal3S(b1-3)GalNAc = target: Gal3S(b1-3)GalNAc
Procedure, shortened: as §1

Gal3S(b1-3)GlcNAc = target: Gal3S(b1-3)GlcNAc
Procedure, shortened: as §1

[3] = target: Gal3S(b1-3)[Fuc(a1-4)]GlcNAc
Procedure, shortened: as §1

Gal3S(b1-4)Glc = target: Gal3S(b1-4)Glc
Procedure, shortened: as §1

Gal3S(b1-4)Glc6S = target: Gal3S(b1-4)Glc6S
Procedure, shortened: as §1

Gal3S(b1-4)GlcNAc = target: Gal3S(b1-4)GlcNAc
Procedure, shortened: as §1

[4] = target: Gal3S(b1-4)[Fuc(a1-3)]Glc6S
Procedure, shortened: as §1

[5] = target: Gal3S(b1-4)[Fuc(a1-3)]GlcNAc
Procedure, shortened: as §1

[6] = target: Gal3S(b1-4)[Fuc(a1-3)]GlcNAc6S
Procedure, shortened: as §1

Gal3S4S(b1-4)GlcNAc = target: Gal3S4S(b1-4)GlcNAc
Procedure, shortened: as §1

Gal3S6S(b1-4)GlcNAc = target: Gal3S6S(b1-4)GlcNAc
Procedure, shortened: as §1

Gal3S6S(b1-4)GlcNAc6S = target: Gal3S6S(b1-4)GlcNAc6S
Procedure, shortened: as §1

Gal4S(b1-4)GlcNAc = target: Gal4S(b1-4)GlcNAc
Procedure, shortened: as §1

Gal4S6S(b1-4)GlcNAc = target: Gal4S6S(b1-4)GlcNAc
Procedure, shortened: as §1

Gal6P(b1-4)GlcNAc = target: Gal6P(b1-4)GlcNAc
Procedure, shortened: as §1

Gal6S(b1-3)GlcNAc = target: Gal6S(b1-3)GlcNAc
Procedure, shortened: as §1

Gal6S(b1-3)GlcNAc6S = target: Gal6S(b1-3)GlcNAc6S
Procedure, shortened: as §1

Gal6S(b1-4)Glc = target: Gal6S(b1-4)Glc
Procedure, shortened: as §1

Gal6S(b1-4)Glc6S = target: Gal6S(b1-4)Glc6S
Procedure, shortened: as §1

Gal6S(b1-4)GlcNAc = target: Gal6S(b1-4)GlcNAc
Procedure, shortened: as §1

Gal6S(b1-4)GlcNAc6S = target: Gal6S(b1-4)GlcNAc6S
Procedure, shortened: as §1

GalNAc(a1-3)Gal = target: GalNAc(a1-3)Gal
Procedure, shortened: as §1

GalNAc(a1-3)GalNAc = target: GalNAc(a1-3)GalNAc
Procedure, shortened: as §1

[7] = target: GalNAc(a1-3)GalNAc(a1-3)Gal(a1-4)Gal(b1-4)GlcNAc
Procedure, shortened: as §1

[8] = target: GalNAc(a1-3)GalNAc(b1-3)Gal(a1-4)Gal(b1-4)Glc
Procedure, shortened: as §1

GalNAc(b1-3)Gal = target: GalNAc(b1-3)Gal
Procedure, shortened: as §1

[9] = target: GalNAc(b1-3)Gal(a1-4)Gal(b1-4)GlcNAc
Procedure, shortened: as §1

[10] = target: GalNAc(b1-3)Gal(a1-4)Gal(b1-4)GlcNAc(b1-3)Gal(b1-4)Glc
Procedure, shortened: as §1

[11] = target: GalNAc(b1-3)Gal(a1-6)Gal(b1-4)Glc
Procedure, shortened: as §1

GalNAc(b1-3)GalNAc = target: GalNAc(b1-3)GalNAc
Procedure, shortened: as §1

GalNAc(b1-3)GlcNAc = target: GalNAc(b1-3)GlcNAc
Procedure, shortened: as §1

GalNAc(b1-4)Gal(b1-4)Glc = target: GalNAc(b1-4)Gal(b1-4)Glc
Procedure, shortened: as §1

GalNAc(b1-4)GlcNAc = target: GalNAc(b1-4)GlcNAc
Procedure, shortened: as §1

[12] = target: GalNAc(b1-4)GlcNAc(b1-2)Man
Procedure, shortened: as §1

B1: ACA (Amaranthus caudatus) (protein)
chain: MAGLPVIMCLKSNNNQKYLRYQSDNIQQYGLLQFSADKILDPLAQFEVEPSKTYDGLVHIKSRYTNKYLVRWSPNHYWITASANEPDENKSNWACTLFKPLYVEEGNMKKVRLLHVQLGHYTQNYTVGGSFVSYLFAESSQIDTGSKDVFHVIDWKSIFQFPKRYVTFKGNNGKYLGVITINQLPCLQFGYDNLNDPKVAHEMFVTSNGTICIKSTYMNKFWRLSTDDWILVDGNDPRETNEAAALFRSDVHDFNVISLLNMQKTWFIKRFTSGKPGFINCMNAATQNVDETAILEIIELGSNN
glycan array binding signal (z-score) [1]: -0.19 | glycan array binding signal (z-score) [2]: 0.108 | glycan array binding signal (z-score) (Gal(b1-4)GlcNAc6P): -0.362 | glycan array binding signal (z-score) (Gal(b1-6)Gal): -0.418 | glycan array binding signal (z-score) (Gal3S(b1-3)GalNAc): -0.205 | glycan array binding signal (z-score) (Gal3S(b1-3)GlcNAc): -0.402 | glycan array binding signal (z-score) [3]: -0.203 | glycan array binding signal (z-score) (Gal3S(b1-4)Glc): -0.156 | glycan array binding signal (z-score) (Gal3S(b1-4)Glc6S): -0.276 | glycan array binding signal (z-score) (Gal3S(b1-4)GlcNAc): -0.039 | glycan array binding signal (z-score) [4]: 0.827 | glycan array binding signal (z-score) [5]: -0.462 | glycan array binding signal (z-score) [6]: -0.386 | glycan array binding signal (z-score) (Gal3S4S(b1-4)GlcNAc): -0.156 | glycan array binding signal (z-score) (Gal3S6S(b1-4)GlcNAc): -0.093 | glycan array binding signal (z-score) (Gal3S6S(b1-4)GlcNAc6S): 0.432 | glycan array binding signal (z-score) (Gal4S(b1-4)GlcNAc): -0.336 | glycan array binding signal (z-score) (Gal4S6S(b1-4)GlcNAc): -0.416 | glycan array binding signal (z-score) (Gal6P(b1-4)GlcNAc): -0.634 | glycan array binding signal (z-score) (Gal6S(b1-3)GlcNAc): -0.469 | glycan array binding signal (z-score) (Gal6S(b1-3)GlcNAc6S): -0.274 | glycan array binding signal (z-score) (Gal6S(b1-4)Glc): -0.168 | glycan array binding signal (z-score) (Gal6S(b1-4)Glc6S): 0.122 | glycan array binding signal (z-score) (Gal6S(b1-4)GlcNAc): -0.235 | glycan array binding signal (z-score) (Gal6S(b1-4)GlcNAc6S): -0.097 | glycan array binding signal (z-score) (GalNAc(a1-3)Gal): -0.42 | glycan array binding signal (z-score) (GalNAc(a1-3)GalNAc): -0.401 | glycan array binding signal (z-score) [7]: -0.18 | glycan array binding signal (z-score) [8]: -0.541 | glycan array binding signal (z-score) (GalNAc(b1-3)Gal): -0.355 | glycan array binding signal (z-score) [9]: -0.526 | glycan array binding signal (z-score) [10]: -0.38 | glycan array binding signal (z-score) [11]: -0.084 | glycan array binding signal (z-score) (GalNAc(b1-3)GalNAc): -0.213 | glycan array binding signal (z-score) (GalNAc(b1-3)GlcNAc): -0.517 | glycan array binding signal (z-score) (GalNAc(b1-4)Gal(b1-4)Glc): 0.123 | glycan array binding signal (z-score) (GalNAc(b1-4)GlcNAc): 0.037 | glycan array binding signal (z-score) [12]: -0.233
